Measurements from the supplement of paper PMC10126150.
Values marked as one replicate rest on one cluster of the flow cell; about a third of the high ones do not repeat.

Test system: ATP
Test: switch fluorescence ratio, 500 uM ATP over buffer (Cy3 cluster intensity, sum of 5 cycles each) (fold (ratio)); higher = stronger signal-on switching upon ATP binding; sequences stand for … in TCGTCGGCAGCGTCAGATGTGTATAAGAGACAGTTTTTTTTTTTTTTTTTTTTTTTTT…TC
Settings: aptamer strand: ATP DNA aptamer (quencher-CACCTGGGGGAGTATTGCGGAGGAAGG + anchor), 100 nM annealed; ATP concentration: 500 uM; one replicate
Procedure, shortened: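 For every switch-domain sequence, the fluorescence ratio is the mean of per-cluster values, each being summed target-cycle Cy3 intensity over summed buffer-cycle Cy3 intensity. Clusters outside 100-1000 RFU were excluded. On a modified Illumina MiSeq flow-cell, the Cy3-labelled switching-strand clusters were annealed to 100 nM quencher-labelled ATP aptamer, imaged in selection buffer and then after 15 min with 500 uM ATP at 22 °C. Five such cycles were run, with NaOH stripping and re-annealing between them.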
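Note: ATP exposure 15 min at 22 °C before imaging.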

TGCTCCGAGT
switch fluorescence ratio: 1.94

TGAGAAAGAA
switch fluorescence ratio: 0.995

CATGTATAAC
switch fluorescence ratio: 0.983

AGATTCGTTG
switch fluorescence ratio: 0.963

GGCGTGAACT
switch fluorescence ratio: 0.993

GGCCAGTTAG
switch fluorescence ratio: 0.998

CCATAGGGTT
switch fluorescence ratio: 0.994

TCCCCACTT
switch fluorescence ratio: 1.01

ATGGATTACG
switch fluorescence ratio: 0.978

TTGGGTCCTG
switch fluorescence ratio: 1.01

TCCAAGTAAG
switch fluorescence ratio: 1.05

TATACTTTA
switch fluorescence ratio: 1.04

TCGTTCGCGA
switch fluorescence ratio: 2.57

AGTCCGAGG
switch fluorescence ratio: 0.981

CAGAGTCCCG
switch fluorescence ratio: 0.943

GTGTCAGGTA
switch fluorescence ratio: 0.998

TCAAGTACCG
switch fluorescence ratio: 1.13

GGGCCGCGTA
switch fluorescence ratio: 1.03

GTGTTAGAA
switch fluorescence ratio: 0.935

ATCCGATATC
switch fluorescence ratio: 1.87

GGTTAGACGA
switch fluorescence ratio: 0.99

TGATTATCGT
switch fluorescence ratio: 1

AAGAACCGAG
switch fluorescence ratio: 1.31

AATTCCAGTG
switch fluorescence ratio: 1.13

GTTAGATAAT
switch fluorescence ratio: 1.02

TTAAAGGTCG
switch fluorescence ratio: 1.01

GTGGGGGATA
switch fluorescence ratio: 1.07

AGGGC
switch fluorescence ratio: 1.02

ATCGGCAGCT
switch fluorescence ratio: 1.02

GTGATAGACG
switch fluorescence ratio: 0.979

AGTTGCCCGC
switch fluorescence ratio: 1.02

TTGCTAGTGA
switch fluorescence ratio: 0.996

TGGGGACCGC
switch fluorescence ratio: 1.25

CTCACGGGTC
switch fluorescence ratio: 1.08

GTCCTACTTT
switch fluorescence ratio: 1.01

TGCTAATC
switch fluorescence ratio: 0.999

TAAGAGGGA
switch fluorescence ratio: 0.97

TACTACTTAA
switch fluorescence ratio: 1.04

CTTATAATGG
switch fluorescence ratio: 1.04

CAGAGTCGCA
switch fluorescence ratio: 1.03

CGGTGAATTA
switch fluorescence ratio: 0.957

TCCGTAGTCC
switch fluorescence ratio: 2.54

CCTAGCCAAC
switch fluorescence ratio: 3.31

TCCTCAAGGT
switch fluorescence ratio: 1.49

CGGTTCAAGC
switch fluorescence ratio: 0.978

GCCGTGCCAG
switch fluorescence ratio: 1.03

CGTTTTCACA
switch fluorescence ratio: 0.959

CTCGGTACCC
switch fluorescence ratio: 1.05

TACGCTCCGC
switch fluorescence ratio: 1.31

CTTTAAAATC
switch fluorescence ratio: 0.992

CGTCTGAAGC
switch fluorescence ratio: 0.955

TACTAACCTA
switch fluorescence ratio: 1.12

TAAGTGGGTC
switch fluorescence ratio: 1.03

TGGGGCTGCT
switch fluorescence ratio: 1

CATGAAATAG
switch fluorescence ratio: 1

TATTGGTACA
switch fluorescence ratio: 0.984

ATCGACAGAT
switch fluorescence ratio: 1.01

GTCCTACGTA
switch fluorescence ratio: 1.2

GAAAGAGTTT
switch fluorescence ratio: 1.02

GGCGGATAGC
switch fluorescence ratio: 1.03

GCGAGTCAGG
switch fluorescence ratio: 1.06

TGATACATT
switch fluorescence ratio: 1.05

ACAACTTTGG
switch fluorescence ratio: 1.02

GGTTTGATTC
switch fluorescence ratio: 1.04

GGTAGAGGT
switch fluorescence ratio: 1.03

GAATTGATAG
switch fluorescence ratio: 1.04

CGGGTTGGCA
switch fluorescence ratio: 1.03

ATAACTAAAA
switch fluorescence ratio: 1.01

TTCCCTGGTG
switch fluorescence ratio: 1.61

GGCCAATTGT
switch fluorescence ratio: 1.02

TATGCTTCTA
switch fluorescence ratio: 0.986

ATTAATGCAT
switch fluorescence ratio: 1.01

CAAGGGTTAG
switch fluorescence ratio: 0.988

TTACAAGGTC
switch fluorescence ratio: 1.04

ACAAGGGGTG
switch fluorescence ratio: 1.06

TAGTCTCGTT
switch fluorescence ratio: 1.02

CGGCATCGG
switch fluorescence ratio: 1.04

CTGGATACCT
switch fluorescence ratio: 1.29

TCTAGTTTAA
switch fluorescence ratio: 1.01

ATACATATTC
switch fluorescence ratio: 1.03

TGAATTGCCC
switch fluorescence ratio: 1.03

TCCGAATCGG
switch fluorescence ratio: 0.982

TTTTGAGTA
switch fluorescence ratio: 1.01

AGACGATCTA
switch fluorescence ratio: 1.02

GGTATCAAGA
switch fluorescence ratio: 0.967
